Results: PMC5700166
The entries are a selection whose mix differs from that of the whole data set. For part of these data: The list includes weakly bound sequences.

Experiments:
[1] = biological target: T1, GST-Nv-NF-kB (Cys allele) (UniProt E5G601); assay: protein-binding microarray (PBM); conditions: PBM: ~300 nM protein, 6 mM HEPES pH 7.8, 80 mM KCl, 0.5 mM EDTA, 0.5 mM EGTA, 6% glycerol, 35 ng/ul poly-dIdC, 1% milk, 1 h, room temperature; high values mean tight binding; double strand, one strand shown
T1 sequence: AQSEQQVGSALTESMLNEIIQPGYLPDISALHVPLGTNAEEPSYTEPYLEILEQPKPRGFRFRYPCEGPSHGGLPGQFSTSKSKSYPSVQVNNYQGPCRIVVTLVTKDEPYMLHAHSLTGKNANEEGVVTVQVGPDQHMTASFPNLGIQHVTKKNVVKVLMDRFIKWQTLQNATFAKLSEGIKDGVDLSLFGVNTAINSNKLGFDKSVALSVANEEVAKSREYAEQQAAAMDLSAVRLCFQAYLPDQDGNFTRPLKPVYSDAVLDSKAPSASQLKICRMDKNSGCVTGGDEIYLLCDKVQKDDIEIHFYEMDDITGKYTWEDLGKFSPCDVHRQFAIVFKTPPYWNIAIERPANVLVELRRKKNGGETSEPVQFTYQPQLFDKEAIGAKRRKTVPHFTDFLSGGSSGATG

GST-Dm-Relish = biological target: T2, GST-Dm-Relish (UniProt Q94527); assay: protein-binding microarray (PBM); conditions: PBM: ~300 nM protein, 6 mM HEPES pH 7.8, 80 mM KCl, 0.5 mM EDTA, 0.5 mM EGTA, 6% glycerol, 35 ng/ul poly-dIdC, 1% milk, 1 h, room temperature; Ap Aiptasia and Nv Nematostella (sea anemones) / Co Capsaspora / Aq Amphimedon (sponge) / Dm Drosophila / Hu human; RHD is the Rel homology domain; high values mean tight binding; most listed sequences are background and not binding sites; double strand, one strand shown
T2 sequence: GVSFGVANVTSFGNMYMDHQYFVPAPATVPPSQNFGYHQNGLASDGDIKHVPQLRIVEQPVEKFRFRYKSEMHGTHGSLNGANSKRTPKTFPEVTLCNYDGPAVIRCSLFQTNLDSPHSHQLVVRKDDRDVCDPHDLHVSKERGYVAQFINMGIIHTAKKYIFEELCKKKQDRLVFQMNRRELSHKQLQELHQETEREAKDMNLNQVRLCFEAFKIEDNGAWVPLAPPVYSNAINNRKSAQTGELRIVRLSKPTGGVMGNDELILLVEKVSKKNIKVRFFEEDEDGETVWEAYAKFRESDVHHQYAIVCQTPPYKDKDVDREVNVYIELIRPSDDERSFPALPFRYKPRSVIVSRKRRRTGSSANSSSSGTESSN

Sequence	binding signal [1] [z-score]	binding signal (GST-Dm-Relish) [z-score]
CCGATTAACATCAAAATCCCAGGTGATGTTAATCGGGTCTTGATTCGCTTGACGCTGCTG	1.42	5.57
CCGATTAACATCAATTCCCGTACTGATGTTAATCGGGTCTTGATTCGCTTGACGCTGCTG	2.92	0.879
CCGATTAACATCACGGTTTTCCCTGATGTTAATCGGGTCTTGATTCGCTTGACGCTGCTG	5.02	4.43
CCGATTAACATCAGGGGGTATACTGATGTTAATCGGGTCTTGATTCGCTTGACGCTGCTG	3.11	6.38
CCGATTAACATCACAGTACCCCCTGATGTTAATCGGGTCTTGATTCGCTTGACGCTGCTG	2.85	1.94
CCGATTAACATCAAAAGTCCCCGTGATGTTAATCGGGTCTTGATTCGCTTGACGCTGCTG	8.18	9.25
CCGATTAACATCAGGGGTTCCCATGATGTTAATCGGGTCTTGATTCGCTTGACGCTGCTG	2.36	10
CCGATTAACATCAAAACCCCCCTTGATGTTAATCGGGTCTTGATTCGCTTGACGCTGCTG	7.32	10.5
CCGATTAACATCAGGGGACTTTATGATGTTAATCGGGTCTTGATTCGCTTGACGCTGCTG	8.29	8.18
CCGATTAACATCAAGGGGGGACTTGATGTTAATCGGGTCTTGATTCGCTTGACGCTGCTG	5.56	5.09
CCGATTAACATCAAGCAACCCCCTGATGTTAATCGGGTCTTGATTCGCTTGACGCTGCTG	3.34	5.19
CCGATTAACATCATGGGGAGGAATGATGTTAATCGGGTCTTGATTCGCTTGACGCTGCTG	3.68	0.52
